The whole screen tested about 310,000 compounds, of which about 14,000 (4.5%) showed an effect of 50% or more. Effects have a minus sign here. This is one part of the list.
Each molecule was assayed against human ether-à-go-go-related gene (hERG) potassium channel (human, UniProt Q12809) (assay: primary screen, population patch clamp on CHO cells stably expressing hERG).
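Also: peak tail current of the secondary pulse compared with the same well before compound.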

human ether-à-go-go-related gene (hERG) potassium channel, sequence (Q12809 whole entry, looked up): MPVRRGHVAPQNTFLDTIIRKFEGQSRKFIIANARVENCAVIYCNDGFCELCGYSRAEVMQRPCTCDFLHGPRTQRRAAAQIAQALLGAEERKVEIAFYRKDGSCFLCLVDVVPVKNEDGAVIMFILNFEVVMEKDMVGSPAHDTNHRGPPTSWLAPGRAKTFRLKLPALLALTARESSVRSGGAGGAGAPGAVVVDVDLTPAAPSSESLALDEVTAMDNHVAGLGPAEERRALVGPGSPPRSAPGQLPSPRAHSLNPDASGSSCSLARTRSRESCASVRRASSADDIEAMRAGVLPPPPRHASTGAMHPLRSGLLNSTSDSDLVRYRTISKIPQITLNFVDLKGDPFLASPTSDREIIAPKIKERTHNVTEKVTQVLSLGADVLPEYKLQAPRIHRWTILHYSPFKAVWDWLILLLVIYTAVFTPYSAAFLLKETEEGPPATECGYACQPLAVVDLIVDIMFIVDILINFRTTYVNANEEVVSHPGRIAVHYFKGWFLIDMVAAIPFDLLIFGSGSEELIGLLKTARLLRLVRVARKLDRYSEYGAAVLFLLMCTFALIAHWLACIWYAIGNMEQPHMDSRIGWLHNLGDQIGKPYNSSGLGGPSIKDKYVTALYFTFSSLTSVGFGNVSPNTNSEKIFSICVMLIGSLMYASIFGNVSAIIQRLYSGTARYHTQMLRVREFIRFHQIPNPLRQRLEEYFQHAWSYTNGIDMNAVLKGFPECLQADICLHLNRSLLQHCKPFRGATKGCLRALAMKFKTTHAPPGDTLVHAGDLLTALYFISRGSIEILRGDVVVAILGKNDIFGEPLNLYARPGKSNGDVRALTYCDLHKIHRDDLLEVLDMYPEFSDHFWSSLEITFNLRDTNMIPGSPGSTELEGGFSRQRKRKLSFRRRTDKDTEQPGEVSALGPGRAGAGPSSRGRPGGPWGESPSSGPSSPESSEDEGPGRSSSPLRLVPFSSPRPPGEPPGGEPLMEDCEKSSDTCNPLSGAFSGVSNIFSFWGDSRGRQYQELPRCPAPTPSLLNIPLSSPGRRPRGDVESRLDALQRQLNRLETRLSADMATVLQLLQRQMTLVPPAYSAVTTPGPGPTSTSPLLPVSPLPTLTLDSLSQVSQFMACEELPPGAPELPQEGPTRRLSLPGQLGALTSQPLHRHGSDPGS

| Compound | hERG current change (%, negative = inhibition) at 10uM [%] |
| --- | --- |
| O=C(Cn1c(NCCO)nc2ccccc21)NCC1CCCO1 (stereo not drawn) | 39.7 |
| CCOc1ccc(NC(=O)CCC(=O)N/N=C2\CCCc3ccccc32)cc1 | 2.38 |
| CC(=O)OCc1c(F)c(F)c(-n2nc(C)cc2C)c(F)c1F | -0.234 |
| Cc1cccc(C)c1NC(=O)CSc1nnc(-c2ccoc2C)n1CCc1ccccc1 | -46.3 |
| COc1cc(NC(=S)NCCCN(C)C)c(OC)cc1NC(=O)c1ccco1 | 7.61 |
| Cn1c(=O)c2c(nc(SCC(=O)N3CCc4ccccc4C3)n2C)n(C)c1=O | -6.55 |
| CN(C)c1ccc(N2C(=NC(=O)CCc3ccccc3)SC3CS(=O)(=O)CC32)cc1 (stereo not drawn) | -22 |
| CCOC(=O)c1nc(Nc2ccc(N3CCOCC3)cc2)c2ccccc2n1 | 8.05 |
| COc1ccccc1N(CC(=O)N/N=C/c1ccc(C(=O)O)cc1)S(=O)(=O)c1ccc(C)cc1 | 4.61 |
| CCOC(=O)/C(C#N)=C/c1cn(CCC(=O)O)nc1-c1ccc(Br)cc1 | 11.7 |
| O=C(Cn1c(=O)c2cccn2c2ccccc21)Nc1cc(F)ccc1F | 12 |
| CCCNC(=O)c1cc2c(C(F)(F)F)nn(C)c2s1 | 10.5 |
| O=C(c1ccco1)N(Cc1ccc([N+](=O)[O-])cc1)c1ccc(Cl)cc1 | -36.5 |
| O=C(O)c1ccc(CNC(=O)c2ccc(Br)o2)cc1 | -5.15 |
| C=CCN1CCN(c2ccncc2S(=O)(=O)N2CCOCC2)CC1 | -13 |
| COc1ccc(-c2cnc(OC(C)(C)C)nc2OC(C)(C)C)cc1OC | 11 |
| Cc1ccc(S(=O)(=O)N2CCc3ccccc3C2)cc1 | 13 |
| Cc1[nH]c2ccc(C(=O)OC(C)C(=O)NCc3ccccc3)cc2c1C (stereo not drawn) | -10.1 |
| O=C(N/N=C/c1cccc([N+](=O)[O-])c1)C1COc2ccccc2O1 (stereo not drawn) | -29.1 |
| CC(C)CC(=O)N1CCN(Cc2ccccc2Br)CC1 | -5.99 |
| O=C(c1ccccc1)N1CCC(=O)N(C(CO)Cc2ccccc2)CC1 (stereo not drawn) | -9.39 |
| CCC(=O)c1ccccc1OCCCN1CCC(Cc2ccccc2)CC1.O=C(O)C(=O)O | -78.5 |
| COc1ccc(S(=O)(=O)NCC2CCCN(Cc3ccccc3C)C2)cc1 (stereo not drawn) | -12.3 |

| Compound | hERG current change (%, negative = inhibition) at 10uM [%] |
| --- | --- |
| CC1CCCN(c2nc3c(c(=O)[nH]c(=O)n3C)n2CCCc2ccccc2)C1 (stereo not drawn) | -48.5 |
| Cc1cc(SCc2cccc([N+](=O)[O-])c2)nc(=O)[nH]1 | 11.4 |
| COc1ccccc1CN(Cc1cc2cc3c(cc2[nH]c1=O)OCCO3)Cc1nnnn1Cc1ccco1 | 7.49 |
| O=C(CCCc1c[nH]c2ccccc12)NCc1cccs1 | 40.5 |
| O=C(CSc1nc(-c2ccco2)cc(C(F)(F)F)n1)NCCc1ccccc1 | -0.684 |
| O=C(Nc1nc2c(Br)cccc2s1)C1CC1 | -17.9 |
| COCCCn1c(=O)c2sccc2n2c(CCCC(=O)NCc3ccc(F)cc3)nnc12 | -41.6 |
| CCCN(CC(=O)Nc1ccc(F)c(F)c1F)Cc1cc(=O)n2ccsc2n1 | -25.4 |
| O=C(O)CCCCCNC(=O)c1ccncc1 | -3.45 |
| CSc1sc(C(=O)NNC(=O)c2ccc(Cl)cc2)c2c1C=CCC2 | 1.18 |
| [O-][N+]1=C(c2cccs2)CN(O)C1 | 8.57 |
| CC1=C(C(=O)Nc2ccc(C)cc2C)C(c2cccc(Cl)c2)n2nc(C(=O)OC(C)C)nc2N1 (stereo not drawn) | -3.86 |
| C=CCOc1ccc(S(C)(=O)=O)cc1 | -3.44 |
| CCn1c(CCC(N)=O)nnc1SCC(=O)Nc1cccc(S(=O)(=O)N2CCCC2)c1 | -4.93 |
| Cc1cc(C)c(S(=O)(=O)c2ccccc2)c(N2CCOCC2)n1 | 7.75 |
| CCC(C)NCC(=O)Nc1sc2c(c1C(N)=O)CCC2 (stereo not drawn) | -10.8 |
| COc1ccc(CN(C(=O)Cc2cccs2)C(C(=O)NC2CCCC2)c2ccncc2)cc1 (stereo not drawn) | -13.8 |
| O=C(Nc1ccc(F)c([N+](=O)[O-])c1)c1cccs1 | -7.69 |
| Cc1ccccc1-c1nc(CN2CCCC(C(=O)NCCCN3CCOCC3)C2)c(C)o1 (stereo not drawn) | -7.84 |
| CCOc1ccc(NC(=S)N2CCC(NC(=O)c3ccccc3C)CC2)cc1 | -1.63 |
| Cc1ccc(CN(Cc2ccco2)C(=S)NCC(=O)NCc2cccnc2)cc1 | -14.4 |
| CCCCn1cnc2c(cnn2-c2ccc(Cl)cc2)c1=O | -0.569 |
| Cc1ccc(NC(=O)c2cccc(N3C(=O)C4C5C=CC(C5)C4C3=O)c2)cc1C (stereo not drawn) | -7.07 |

| Compound | hERG current change (%, negative = inhibition) at 10uM [%] |
| --- | --- |
| CCOC(=O)CN1C(=O)C(C)(C)Oc2ccc(C(=O)Nc3ccccc3)cc21 | 0.256 |
| COCC(=O)Nc1nnc(COc2ccc(Cl)cc2)s1 | -0.556 |
| O=C(Cn1cc(C(=O)c2ccco2)c2ccccc21)NC1CCCC1 | -2.49 |
| CCCN(CCC)C(=O)c1cn(C)c2ccc(S(=O)(=O)N3CCCC3)cc2c1=O | 5.93 |
| O=C(NCCC1CCCCN1S(=O)(=O)c1ccc(F)cc1)C(=O)NCC1CCCO1 (stereo not drawn) | -38.8 |
| CC(=O)N1CCN(C(=O)c2ccc(Cl)c(NC(=O)c3cccs3)c2)CC1 | -15.3 |
| CCc1ccc(CN2CCCC(C(=O)c3sccc3C)C2)o1 (stereo not drawn) | 2.99 |
| Cc1ccc(-n2ncc3c2CCCC3NC(=O)CCc2c(C)noc2C)cc1C (stereo not drawn) | -8.07 |
| O=C(NC1CCCC1)c1cnn2c(C(F)(F)F)cc(-c3ccc4c(c3)OCO4)nc12 | -1.76 |
| O=C(NC1CCS(=O)(=O)C1)C12CC3CC(CC(C3)C1)C2 (stereo not drawn) | 0.374 |
| CCS(=O)(=O)N1CCC(C(=O)NC2CCCCC2)CC1 | 7.43 |
| CCOC(=O)C1CCN(Cc2ccc(F)c(Br)c2)CC1 | -8.18 |
| O=C(CCCc1nc2ccccc2s1)NNC(=O)CCN1CCN(Cc2ccccc2)CC1 | -39.2 |
| N/C(Cc1cccs1)=N\OC(=O)COc1ccccc1Cl | 2.85 |
| O=C(O)C1CC=CCC1C(=O)NCCCN1CCCC1=O (stereo not drawn) | 10.1 |
| COc1ccccc1NC(=O)C(C(C)C)N1C(=O)c2ccccc2C1=O (stereo not drawn) | 17.4 |
| CN1CC(=O)N(CC(=O)NCCc2ccc(F)cc2)c2ccccc2C1=O | -4.64 |
| CCCCCn1c(=O)[nH]c2cc(C(=O)NC3CCN(Cc4ccccc4)CC3)ccc2c1=O | 15.6 |
| CCOC(=O)c1c(NC(N)=O)sc(C)c1C | 0.795 |
| CCOC(=O)C1=C(C)C2C3C(=O)N(c4ccc(C)cc4C)C(=O)C3C1(C)C1C(=O)N(c3ccc(C)cc3C)C(=O)C21 (stereo not drawn) | 0.443 |
| COc1ccc2[nH]cc(CCNS(=O)(=O)c3ccc(C)cc3)c2c1 | -38.1 |
| CCOc1ccccc1N(CC(=O)NCCSc1ccccn1)S(=O)(=O)c1ccc(C)cc1 | -27.8 |
| Cc1cc(-c2n[nH]c(=S)n2/N=C/C=C/c2ccco2)n[nH]1 | 10.7 |

| Compound | hERG current change (%, negative = inhibition) at 10uM [%] |
| --- | --- |
| CC/C(=N\NC(=O)OC)c1ccc(OC(F)F)cc1 | 22 |
| C/C(=N\NC(=O)c1nc2ccccn2c1C)c1ccc2c(c1)OCO2 | -18.5 |
| CCN1CCN(C(c2nnnn2Cc2ccc3c(c2)OCO3)C(C)C)CC1.Cl (stereo not drawn) | -41.6 |
| COc1ccc(-c2nc3cc(C)ccn3c2NCc2ccc3c(c2)OCO3)cc1 | -67.5 |
| CC(=O)NC1=NC(=O)/C(=C/N2CCOCC2)S1 | 6.49 |
| Cn1cccc1C(=O)NCC1CCCCC1 | 14.1 |
| Cc1cc(/C=c2/sc3nc4ccccc4n3c2=O)c(C)n1-c1ccccn1 | 4.27 |
| Cc1cc(NC(=O)Cn2nc(C)c([N+](=O)[O-])c2C)no1 | 2.93 |
| COc1cccc(-n2c(SC3CCOC3=O)nc3ccccc3c2=O)c1 (stereo not drawn) | -12.1 |
| C=C(C)CSc1nnc([C@@H](N)Cc2ccccc2)o1.Cl | 9.85 |
| COc1ccc(-n2cnc3c(sc4nc(N5CCOCC5)c5c(c43)CCCC5)c2=O)cc1 | 21.3 |
| O=C(OCc1ccccc1Cl)c1cccnc1Cl | -14.4 |
| Cc1cc(C=O)c(C)n1-c1ccc(N2CCOCC2)cc1 | -10.8 |
| CCCCNC(=O)COC(=O)c1ccc(NC(C)=O)cc1 | 15.5 |
| CCN(CC(=O)Nc1ccc2c(c1)OCCO2)C(=O)/C=C/c1ccc(F)cc1 | -7.2 |
| Cc1cc(C(=O)NNC(=O)c2ccc(C)s2)c(C)o1 | 3.91 |
| Cc1ccc(Cn2c(-c3nonc3N)nc3ccccc32)cc1 | 3.95 |
| O=C(O)C1CCC1C(=O)Nc1nc(-c2ccc(Cl)s2)cs1 (stereo not drawn) | 15.3 |
| COc1cc(Br)c(Br)cc1N | 7.73 |
| Cc1ccc(C(=O)Nc2nc(=O)n(C)s2)cc1 | 19.4 |
| CCOC(=O)C1CCN(S(=O)(=O)c2cccc(-c3cn4ccccc4n3)c2)CC1 | -60.4 |
